Data reported in publication PMC6919601, “Identification of Plasmodium dipeptidyl aminopeptidase allosteric inhibitors by high throughput screening” (PLoS ONE, 2019).
Screen size: about 110,000 compounds; about 230 (0.21%) showed an effect of 50% or more. The list shows a part of the results.

Each compound was assayed against DPAP1 (Plasmodium falciparum, UniProt Q8IIJ9) (assay: primary screen, percent inhibition; read by cleavage of a fluorogenic dipeptide substrate; higher = more effect of the substance).
Chain of DPAP1 (Q8IIJ9 whole entry, looked up): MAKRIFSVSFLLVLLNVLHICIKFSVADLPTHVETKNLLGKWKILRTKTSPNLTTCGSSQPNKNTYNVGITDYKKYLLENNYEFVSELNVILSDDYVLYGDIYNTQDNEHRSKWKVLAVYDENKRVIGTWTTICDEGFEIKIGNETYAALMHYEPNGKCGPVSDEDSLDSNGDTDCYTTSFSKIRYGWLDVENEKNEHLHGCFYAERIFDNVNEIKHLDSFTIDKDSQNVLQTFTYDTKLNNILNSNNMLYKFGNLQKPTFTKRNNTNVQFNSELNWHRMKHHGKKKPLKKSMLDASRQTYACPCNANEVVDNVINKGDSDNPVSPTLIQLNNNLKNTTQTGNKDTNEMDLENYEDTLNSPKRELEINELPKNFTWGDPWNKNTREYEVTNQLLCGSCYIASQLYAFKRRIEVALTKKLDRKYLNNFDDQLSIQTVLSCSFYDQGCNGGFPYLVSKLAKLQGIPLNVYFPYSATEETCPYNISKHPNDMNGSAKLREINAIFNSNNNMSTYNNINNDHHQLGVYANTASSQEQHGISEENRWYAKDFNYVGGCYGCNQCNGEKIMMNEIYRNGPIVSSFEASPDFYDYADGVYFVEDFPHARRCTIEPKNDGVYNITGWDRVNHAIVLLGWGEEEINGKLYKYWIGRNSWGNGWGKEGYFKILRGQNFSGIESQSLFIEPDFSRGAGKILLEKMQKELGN
Design: species or system P. falciparum D10 trophozoite lysates; single well
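Note: 30 min substrate incubation versus DMSO and 10 µM JCP410 controls.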

Structure (SMILES)	% Inhibition @ 10 uM [%]
COc1cc2c(cc1OC)C(c1ccc3c(c1)OCO3)CC(=O)N2 (stereo not drawn)	1.72
CNCCOC(c1ccccc1)c1ccccc1C(C)(C)C (stereo not drawn)	-3.77
CCOc1cccc(C2c3c(oc4ccccc4c3=O)C(=O)N2c2ccccn2)c1 (stereo not drawn)	-5.54
Cc1nn(-c2ccccc2)c(O)c1/C=N/C1CCCCC1	0.685
O=C(Nc1nonc1N1C(=O)c2ccccc2C1=O)c1ccccc1Cl	-3.75
CCOC(=O)c1cnn2c1NC(c1ccc(Cl)cc1)CC2C(F)(F)F (stereo not drawn)	3.35
C=CCN1C(=O)N/C(=C/c2cn(Cc3ccccc3F)c3ccccc23)C1=O	3.9
c1ccc(-c2nnc3sc(-c4ccco4)nn23)cc1	3.38
COc1cccc(CN2CCN(c3cccc(Cl)c3)CC2)c1	2.47
CCOC(=O)C1=C(CS(=O)(=O)c2ccc(F)cc2)NC(=O)NC1c1ccc(OC)cc1OC (stereo not drawn)	5.92
O=[N+]([O-])c1ccc2c3c(cccc13)C(=S)N2	2.6
COc1ccc(-c2noc(NCCCN3C(C)CCCC3C)n2)cc1OC (stereo not drawn)	4.83
COc1ccc(OC)c(CNC(=O)C2CCCN(S(=O)(=O)N3CC(C)CC(C)C3)C2)c1 (stereo not drawn)	6.86
O=C1c2ccc([N+](=O)[O-])cc2C(=O)N1c1ccc([N+](=O)[O-])cn1	-0.0217
NC(=O)c1nn(-c2ccccc2)nc1NC(=O)COc1ccccc1F	14.6
COc1ccc(S(=O)(=O)N2CCN(C)CC2)cc1OC	-3.86
Cc1ccc2oc(C(=O)Nc3cccnc3)cc(=O)c2c1	5.06
C=CCn1c(Oc2ccc(F)cc2)nc2c1c(=O)n(C)c(=O)n2C	5.15
CCOC(=O)N1CCN(C(=O)CN(c2ccc(F)cc2)S(C)(=O)=O)CC1	-2.46
CCOC(=O)c1c(-c2ccc(OC)cc2)csc1/N=C/C1C(=O)c2ccccc2C1=O	0.408
CC(=O)NC(Cc1ccccc1)c1nc2ccccc2n1Cc1ccccc1C (stereo not drawn)	-5.77
CSc1ccc(CN(C)CCN(C)C)cc1	0.815
CSc1nc(N)c(C#N)c(-c2ccc(C(C)C)cc2)c1C#N	2.05
O=C(CN1CCCCC1)N1CCCc2c1c(=O)oc1ccc(OCc3ccccc3)cc21	1.52
O=C(CCC(=O)Nc1ccc2c(c1)OCCO2)Nc1ccc2c(c1)OCCO2	-3.26

Structure (SMILES)	% Inhibition @ 10 uM [%]
Cc1cc(Nc2ccc(Cl)cc2)nc2ccccc12	-3.74
COc1cc(NC(=O)CC2NC3CCCCC3NC2=O)cc(OC)c1 (stereo not drawn)	4.11
COC(=O)c1ccc(/C=c2/sc3nc(=O)c(-c4ccccc4)nn3c2=O)cc1	-4.84
CCC(C(=O)NCCC(C)C)n1ccc2cc(S(=O)(=O)N3CCCCC3)ccc21 (stereo not drawn)	1.28
O=C(c1cccc(F)c1)N1CCN(c2nc(-c3cccs3)cc(C(F)(F)F)n2)CC1	9.56
O=C(Nc1cccnc1)c1scc2c1CCCC2	1.01
CC(Oc1ccc(C#N)cc1)C(=O)N1N=C(C(F)F)CC1(O)C(F)F (stereo not drawn)	-1.04
CC1CCC(NC(=O)c2ccc3snnc3c2)CC1 (stereo not drawn)	-0.0235
O=C(Cn1cnc2c(oc3ccccc32)c1=O)NCc1ccc2c(c1)OCO2	-6.05
O=[N+]([O-])c1ccc(Cl)c(CN2CCN(c3cccc(Cl)c3)CC2)c1	-3.65
NC(=O)c1cc(S(=O)(=O)Nc2cccc(F)c2)ccc1O	1.03
Cc1ccc(-n2nnc3c(=O)n(CC(=O)NCc4ccco4)cnc32)cc1	-0.431
N#CCNC(=O)[C@@H](Cc1ccc(C#N)cc1)NC(=O)OCc1ccccc1	-3.14
CNC(=O)C(C)n1nc(C)c2c(C)n(-c3ccccc3)nc2c1=O (stereo not drawn)	-7.74
COc1cc2c(C(=O)NCc3ccccn3)cn(C)c(=O)c2cc1OC	37.9
CCOC(=O)N1CCN(C(=O)Cn2nc(C)c3sc4ccccc4c3c2=O)CC1	-5.78
COc1ccccc1N1CCN(C(=O)CN2C(=O)C3CCCCC3C2=O)CC1 (stereo not drawn)	1.62
Cc1cccc(C(=O)OC[C@@H]2CCCN3CCCC[C@H]23)c1	-4.01
Cc1ccc(CNc2c(-c3ccc(C(C)C)cc3)c(=O)c2=O)cc1	0.589
Cc1ccc(S(=O)(=O)Nc2ccc(C(=O)Nc3ccncc3)cc2)cc1	-1.61
Cc1ccc(S(=O)(=O)N(CC(=O)NC2CC3CCC2C3)c2ccccc2F)cc1 (stereo not drawn)	3.81
Cc1ccc(CN2C(=O)N/C(=C/c3ccsc3)C2=O)cc1	4.11
N#Cc1ccc(N2CCN(c3ccc(F)cc3)CC2)cc1	4.78
CC1=C(C#N)C(=O)NC(=O)/C1=C\c1ccc(-c2cc(Cl)cc(Cl)c2)o1	0.484
CCn1c(C(=O)NCCCc2ccccc2)cc2sc(Cl)cc21	0.0873

Structure (SMILES)	% Inhibition @ 10 uM [%]
Nc1ccc(S(=O)(=O)NCCO)cc1	3.06
COc1cc2c(cc1OC)CN(C(=O)C(C)(C)C)CC2	-0.386
O=C(CCn1c(=O)c2cccn2c2cccnc21)N1CCN(C(=O)c2ccco2)CC1	-3.61
O=C(CCNS(=O)(=O)c1cccc2nsnc12)N1CCN(c2ccccn2)CC1	2.06
O=C(Cc1cccs1)N1CCN(c2cccc(Cl)c2)CC1	0.605
CCc1c(C)c2cc3c(C)c(C)oc3cc2oc1=O	-1.15
O=C(c1cc2c(s1)-c1ccccc1OC2)N1CCCN(Cc2ccccc2Cl)C1	-3.08
CCc1nnc(SC(CC)C(=O)NC2CCCC2)c2cc3oc(C)cc3n12 (stereo not drawn)	0.616
CC(C)(C)c1ccc(N2C(=O)CCC2=O)cc1	0.147
O=S(=O)(Nc1ccccc1)c1cccc(S(=O)(=O)c2ccc(Cl)c(S(=O)(=O)Nc3ccccc3)c2)c1	3.25
O=C(Nc1ccncc1)c1ccc(COc2cc(Cl)ccc2Cl)cc1	0.413
COc1ccc(C(=O)Nc2ccc(F)cc2F)cc1Cl	-5.34
CCN(CC)C(=O)Cn1cc(SCC(=O)NCCOC)c2ccccc21	-4.63
Cc1ccc(CN2CCN(c3ccc(F)cc3)CC2)c(C)c1	4.81
Cn1c(C=O)nc2ccccc21	-0.339
O=C(NCc1ccc2c(c1)OCO2)c1nc(-c2cccc(F)c2)n2c1CCCCC2	2.19
COc1cc(C(=O)O)c(-n2cnnn2)cc1OC	-2.28
O=C(O)c1ccc(CNCCN2CCC(Cc3ccccc3)CC2)s1	-6.98
Cc1ccc(S(=O)(=O)CC(=O)c2ccc(C(C)(C)C)cc2)cc1	1.86
COc1ccc(OC)c(NC(=O)C2CCN(S(C)(=O)=O)CC2)c1	0.0504
Cc1nn(-c2ccccc2)c(-n2cccc2)c1C(=O)NCc1ccccn1	3.4
CCOC(=O)N1CCc2c(sc(NC(C)=O)c2C(=O)Nc2ccc(OC)cc2OC)C1	-0.116
O=c1[nH]c(=O)n(-c2ccccc2)c2c1C(C(F)(F)F)(C(F)(F)F)NC(c1ccncc1)=N2	-1.57
CCOc1ccc(CCNC(=O)c2cc(S(=O)(=O)N(C)C)c(Cl)cc2Cl)cc1OCC	2.7
NC1=C(c2nc3ccccc3[nH]2)C(=O)CN1CC1CCCO1 (stereo not drawn)	0.486

Structure (SMILES)	% Inhibition @ 10 uM [%]
Nc1c2cnnc-2nc(SCC(=O)c2ccc(Cl)cc2)n1-c1ccc(Br)cc1	1.42
CC(NC(=O)c1ccccc1)c1ccc(Cl)c(Cl)c1 (stereo not drawn)	-7.02
CC1(C)CC(=O)C(C2(O)C(=O)c3ccccc3C2=O)C(=O)C1	-1.69
Cc1cc(O)c(C2=NCCSC(c3cccs3)C2)c(=O)o1 (stereo not drawn)	4.16
CC(C)Oc1ccc(CNC(=O)CN2C(=O)C(c3ccccc3)Oc3cccnc32)cc1 (stereo not drawn)	0.402
O=C(Cn1nc(-c2ccccc2)ccc1=O)NCc1ccc2c(c1)OCO2	-2.99
COc1ccc(C2NC(=O)c3ccccc3O2)cc1 (stereo not drawn)	-4.61
CCOC(=O)c1cnc(SCC(=O)Nc2sc3c(c2C(=O)OCC)CCCC3)nc1N	0.558
Cc1cc(N2CCCC(CO)C2)nc2cc3c(cc12)OCO3 (stereo not drawn)	1.84
CCOC(=O)c1c(C)[nH]c(C)c1S(=O)(=O)NCCCOC	-4.78
Nc1nc(-c2ccccc2)c(CC(=O)O)s1	2.31
CCOc1ccc(Cc2nn[nH]n2)cc1	1.51
COCCNC(=O)Cc1c(C)nc2c(-c3ccc(F)cc3)c(C)nn2c1C	0.953
COc1ccc(-c2noc(-c3nnn(-c4ccccc4C)c3N)n2)cc1	-3.01
CC1=C(C(=O)Nc2ccc(C)cc2)C(c2ccc(Cl)cc2Cl)NC(=O)N1C (stereo not drawn)	-9.25
CCCC1=Nc2ncnn2C(c2cc(Br)ccc2OC)/C1=C(/O)OCC (stereo not drawn)	1.53
CCCc1ccc(-c2ccc(F)c(N)c2)nc1	-3.38
Cc1cccc(CNC(=O)c2ccc(-c3nc(CS(=O)c4ccccc4)c(C)o3)cc2)c1 (stereo not drawn)	1.31
COc1cccc(C(=O)c2c(N)c(-c3nc(-c4cc(OC)ccc4OC)cs3)c3ccccn23)c1	1
Cc1cc(C)c([N+](=O)[O-])c(C)c1/C=N/O	0.00178
O=C(NCc1ccco1)c1cc(-c2ccccc2)c(N2CCOCC2)s1	-1.03
Cc1cc(C)cc(-n2c(C)cc(C(=O)C(=O)NCc3ccccc3)c2C)c1	6.98
COc1ccc(S(=O)(=O)N2CCC(C(=O)Nc3ccc(C(F)(F)F)cc3)CC2)cc1	-3.97
N=C1S/C(=C\c2ccc(-c3cccc(Cl)c3)o2)C(=O)N1c1nccs1	6.02
